Test results from the RNAGym collection of RNA variant scans (doi:10.1073/pnas.2313332121).
Variants at the background level are over-represented here.

B1: TPR 5TU (parent)
chain: GGAUCUUCUCGAUCUAACAAAAAAGACAAAUCUGCCACAAAGCUUGAGAGCAUCUUCGGAUGCAGAGGCGGCAGCCUUCGGUGGCGCGAUAGCGCCAACGUUCUCAACUAUGACACGCAAAACGCGUGCUCCGUUGAAUGGAGUUUAUCAUG

Variants of: B1
Experiment: polymerase ribozyme fitness, log enrichment relative to wild type (log ratio); higher = more active; in vitro selection for triplet polymerase activity
Summary of the method: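 Streptavidin-bead capture of gel-excised extended constructs, followed by RT-PCR, closed a single triplicate in vitro selection round. That round began by annealing PCR-built, transcribed mutant libraries of each subunit of a heterodimeric triplet polymerase ribozyme with a biotinylated primer, the partner subunit and triplets, then incubating them frozen at −7 °C. After Illumina sequencing of inputs and outputs, genotypes needed ≥10 input reads and ≥1 read per output. Fitness is the base-2 logarithm of genotype enrichment over wild-type enrichment, using inverse-variance-weighted replicate averages.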

| Variant | polymerase ribozyme fitness (log ratio) |
| --- | --- |
| GGAUCUUCUCGAUCUAACAAAAAAGACAAAUCUGCCACAAAGCUUGAGCGCAUCUUCGGAUGCAGAGGCGGCAGCCUUCGGUGACGCGAUAGCGCCAACGUUCUCAACUAUGACACGCAAAACGCGUGCUCCGUUGAAUGGCGUUUUUCAUG [A49C G84A A142C A147U] | ≤ -4.2 |
| GGAUCUUCUCGAUCUAACAAAAAAGACAAAUCUGCCACAAAGCUUGAGCGCAUCUUCGGAUGCAGAGGCGGCAGCCUUCGGUGGCGCGAUACCGCCAACGUUCUCAACUAUGACACGCAAAACGCGUGCUCCGUUGUAUUGAGUUUAUCAUG [A49C G92C A137U G140U] | ≤ -4.2 |
| GGAUCUUCUCGAUCUAACAAAAAAGACAAAUCUGCCACAAAGCUUGAGCGCAUCUUCGGAUGCAGAGGCGGCAGCCUUCGGUGGCGCGAUAGCGCCAACGUUCUCAACUAUGACACGCAAAACGCGUGCUCCAUUGAAUGGAGUUUAUCAUG [A49C G133A] | ≤ -4.2 |
| GGAUCUUCUCGAUCUAACAAAAAAGACAAAUCUGCCACAAAGCUUGAGCGCAUCUUCGGAUGCAGAGGCGGCAGCCUUCGGUGGCGCGAUAGCGCCAACGUUCUCAACUAUGACACGCAAAACGCGUGCUCCGUUAAAUGGAGUUUAUCAUG [A49C G136A] | ≤ -4.2 |
| GGAUCUUCUCGAUCUAACAAAAAAGACAAAUCUGCCACAAAGCUUGAGCGCAUCUUCGGAUGCAGAGGCGGCAGCCUUCGGUGGCGCGAUAGCGCCAACGUUCUCAACUAUGACACGCAAAACGCGUGCUCCGUUGAAUGCAGUUUAUCAUG [A49C G141C] | -4.14 |
| GGAUCUUCUCGAUCUAACAAAAAAGACAAAUCUGCCACAAAGCUUGAGCGCAUCUUCGGAUGCAGAGGCGGCAGCCUUCGGUGGCGCGAUAGCGCCAACGUUCUCAACUAUGACACGCAAAACGCGUGCUCCGUUGAAUGGAAUUUAUCAUG [A49C G143A] | -4.14 |
| GGAUCUUCUCGAUCUAACAAAAAAGACAAAUCUGCCACAAAGCUUGAGCGCAACUUCGCAUGCAGAAGCGGCAGCCUUCGGUGGCGCGAUAGCGCCAAGGUUCUCAACUAUGACGCGCAAAACGCGUGCUCCGUUGAAUGGAGUUUAUCAUG [A49C U53A G59C G67A C99G A115G] | ≤ -4.2 |
| GGAUCUUCUCGAUCUAACAAAAAAGACAAAUCUGCCACAAAGCUUGAGCGCAUCAUCGGAUGCAGAGGCGGCAGCCUUCGGUGGCGCGAUAGCGCCAACGUUCUCAACUAUGACACGCAAAACGCGUGCUCCGUUGAAUGGAGUUUAUCAUG [A49C U55A] | ≤ -4.2 |
| GGAUCUUCUCGAUCUAACAAAAAAGACAAAUCUGCCACAAAGCUUGAGCGCAUCAUCCGAUGCAGAGGCGGCAGCCUUCGGUGGCGCGAUAGCGCCAAUGUUCUCAACUAUGACACGCAAAACGCGUGCUCCGUUGAAUGAAGUUUAUCAUG [A49C U55A G58C C99U G141A] | ≤ -4.2 |
| GGAUCUUCUCGAUCUAACAAAAAAGACAAAUCUGCCACAAAGCUUGAGCGCAUCAUCGAAUGCAGAGGCGGCAGCCUUCGGUGGCGGGAUAGCGCUAACGUUCUCAACUAUGACACGCAAAACGCGUGCUCCGUUGAAUGGAGUUUAUCAUG [A49C U55A G59A C87G C96U] | ≤ -4.2 |
| GGAUCUUCUCGAUCUAACAAAAAAGACAAAUCUGCCACAAAGCUUGAGCGCAUCAUCGGAUGCAAAGGCGGCAGCCUUCGGUGGCGCGAUAGCGCCAACGUUCUCAACUAUGACACGCAAGACGCGUGCUUCGUUGAAUGGAGUUUAUCAUG [A49C U55A G65A A121G C131U] | ≤ -4.2 |
| GGAUCUUCUCGAUCUAACAAAAAAGACAAAUCUGCCACAAAGCUUGAGCGCAUCUACGGAUGCAGAGGCGGCAGCCUUCGGUGGAGCGAUAGCGCCAACGUUAUCAACUAUGACACGCAAAACGCGUACUCCGUUGAAUGGAGUUUAUCAUG [A49C U56A C85A C103A G128A] | ≤ -4.2 |
| GGAUCUUCUCGAUCUAACAAAAAAGACAAAUCUGCCACAAAGCUUGAGCGCAUCUUCGGAUGCAGAGGCGGCAGCCAUCGGUGGCGCGAUAGCGCCAACGUUCUCAACUAUGACACGCAAAACGCGUGCUCCGUUGAAUGGAGUUUAUCAUG [A49C U77A] | ≤ -4.2 |
| GGAUCUUCUCGAUCUAACAAAAAAGACAAAUCUGCCACAAAGCUUGAGCGCAUCUUCGGAUGCAGAGGCGGCAGCCCUCGGUGGCGCGAUAGCACCAACGUUCUCAACUAUGACACGCAAAACGCGUGCUUCGUUGAAUGGAGUUUAUCAUG [A49C U77C G94A C131U] | ≤ -4.2 |
| GGAUCUUCUCGAUCUAACAAAAAAGACAAAUCUGCCACAAAGCUUGAGCGCAUCUUCGGAUGCAGAGGCGGCAGCCGUCGGUGGCGCGAUAGCCCCAACGUUCUCAACUAUGACACGCAAAACGCGUGCUCCGUUGAAUGGAGUUUAUCAUG [A49C U77G G94C] | ≤ -4.2 |
| GGAUCUUCUCGAUCUAACAAAAAAGACAAAUCUGCCACAAAGCUUGAGCGCAUCUUCGGAUGCAGAGGCGGCAGCCUGCGGUGGCGGGAUAGCGCCCACGUUCUCAACUAUGACACGCAAAACGCGUGCGCCGUUGAAUGGAGUUUAACAUG [A49C U78G C87G A97C U130G U148A] | ≤ -4.2 |
| GGAUCUUCUCGAUCUAACAAAAAAGACAAAUCUGCCACAAAGCUUGAGCGCAUCUUCGGAUGCAGAGGCGGCAGCCUUCGGUGGCGCGAUAGCGCCAACGUUCUCAACGAUGACACGCAAAACGCGUGCUCCGUUGAAUGGAGUUUAUCAUU [A49C U109G G152U] | -4.18 |
| GGAUCUUCUCGAUCUAACAAAAAAGACAAAUCUGCCACAAAGCUUGAGCGCAUCUUCGGAUGCAGAGGCGGCAGCCUUCGGUGGCGCGAUAGCGCCAACGUUCUCAACUAUGACACGCAAAACGCGUGCUCCGCUGAAUGGAGUUUAUCAUG [A49C U134C] | ≤ -4.2 |
| GGAUCUUCUCGAUCUAACAAAAAAGACAAAUCUGCCACAAAGCUUGAGGGCCUCUUCGAAUGCAGAGGCGGCAGCCUUCGGUGACGCGAUAGCUCCAACGUUUUCAACUAUGACACGCAAAACGCGUGCUCCGUUGAAUGGAGUUUAUCAUG [A49G A52C G59A G84A G94U C103U] | ≤ -4.2 |
